# Assay results taken from the RNAGym collection of RNA variant scans (doi:10.7554/elife.90254).
# Read counts are not given, so values of variants with three or more changes are uncertain.
# B1: LINE1-full (parent)
# chain: UACGUAGGUGGUUUUCCCCUGAUAGUGCUAAGGGGGCCUGGAAGUUUGGACUGGGCAGAGCUCAACACAGCGUGGCAAAGUGGCUGUGGCUAGACUGCCUCUCUGGAUUCCUCGUCACUCAGCAGGGCAUCUCUGAGAGAAAUGCC
# Variants of: B1
# Assay: self-cleavage, relative activity (ratio to wild type); higher = more cleavage; in vitro, sequencing; the parent is a self-cleaving ribozyme
row,Variant,self-cleavage
1,UACGUAGGUGGUUUUCCCCUGAUAGUGCCAAGGGGGCCUGGAAGUUUGGACUGGGCAGAGCUCAACACAGCGUGGCGAAGUGGCUGUGGCUAGACUGCCUCUCUGGAUUCCUCGUCACUCAGCAGGGCAUCUCUGAGAGAAAGGCC,2.37
2,UACGUAGGUGGUUUUCCCCUGAUAGUGCUAAGGGGGCCUGGAAGUUUGGACUGGGCAGAGCUCAACACAGAGUGCCAAAGUGGCAGUGGCUAGACUGCCUCUCUGGAUUCCUCGUCACUCAGCAGGGCAUCUCUGAGAGAAAUGCC,0
3,UACGUAGGUGGUAUUCCCCUGAUAGUGCUAAGGGGGCCUGGAAGUUUGGACUGGGCAGAGCUCAACACAGCGUGGCAAAGUGGCUGUGGCUAGACUGCCUCUCUGGAUUCCUCGUCACUCAGCAGGGCAUCUCUGGGAGUAAUGCC,1.11
4,UACGUAGGGGGUUUUCCCUUGAUAGUGCUAAGGGGGCCUGGAAGUUUGGACUGGGCAGAGCUCAUCACAGCGUGGCAAAGUGGCUGUGGCUACACUGCCUCUCUGGAUUCCUCGUCACUCAGCAGGGCAUCUCUGAGAGAAAUGCC,0.3
5,CACGUAGGAGGUUUUCCCCUGAUAGUGCUAAGGGGGCCUGGAAGUUUGGACUGGGCAGAGCUCAACACUGCGUGGCAAAGUGGCUGUGGCUAGACUGCCUCUCUGGAUUCCUCGUCACUCAGCAGGGCAUCACUGAGAGAAAUGCC,0.03
6,UACGUAGGUGGUUUUCCCCUGAUAGUGCUAAGGGGGCCAGGAAGUUUGGACUGGGCAGAGCUCAACACAGCGUGGCAAAGUGGCUGUGGCUAGACUGCCUCUCUGGAUUCCUCGUCACCCUGCAGGGCAUCUCUGAGGGAAAUGCC,1.71
7,UACGUAGGUGGUUUUCCCCUGAUAGUGCUAAGGGGGCCUGGAAGUUUGGACUGGGCAGAGGUCAACACUGCGUGGCAAAGUGGCUGUGGCUAGACUGCCUCUCUGGAUUCCUCGUCACUCAGCAGGGCAUCUCUGAGAGAAAUGUC,0.03
8,UACGUAGGAGGUUUUCCCCUGAUAGUGCUAAGGGGGCCUGGAAGUUUGGACUGGGCAGAGCCCAACACAGCGUGGCGAAGUGGCUGUGGCUAGACUGCCUCUCUGGAUUCCUCGUCACUCAGCAGGGCAUCUCUGAGAGGAAUGCC,0
9,UACGUUGGUGGUUUUCCCCUGAUAGUGCUAAGUGGGCCUGGAAGUUUGGACUGGGCAGAGCUCAACACAGCGUGGCAAAGUGGCUGUGGCCAGACUGCCUCUCUGGAUUCCUCGUCACUCAGCAGGGCAUCUCUGAGAGAAAUGCC,1.1
10,UACGUAGGUGGUAUUCCCCUGAUAGUGCUAAGGGGGCCUGGAAGUUUGGACUGGGCAGAGCUCAACACAGCGUGGCAAAGUGGCUGUGGCUAGACUGCCUCUCUGGAUUCCUCGUCACUCAGCGGGGCGUCUCUGAGAGAAAUACC,1.41
11,UACGUAGGUGGUUUUCCCCGGAUAGUGCUAAGGGGGCCUGGAAGUUUGGACUGGGCAGAGCUCAACACAGCGUGGCAAAGUGGCUGUGGCUAGACUGCCUCUCUGGGUUCCCCGUCACUCAGCAGGGCAUCUCUGAGAGAAAUGCC,0.64
12,UACGUAGGUGGUUUUCCCCUGAUAGUGCAAAGGGGGCCUGGAAGUUUGGACUGGGCAGAGCUCAACACAGCGUGGCUAAGUGGCUGUGGCUAGACUGCCUCUCUGGAUUCCUCGUCACUCAGCAGGGCAUCUCUGUGAGAAAUGCC,0.55
13,UACGUAGGCGGUUCUCCCCUGAUAGUGCUAAGGGGGCCUGGAAGUUUGGACUGGGCAGAGCUCAACACAGCGUGGCAAAGUGGCUGUGGCUAGACUGCCUCUCUGGGUUCCUCGUCACUCAGCAGGGCAUCUCUGAGAGUAAUGCC,0.47
14,UACGUGGGUGGUUUUCCCCUGAUAGUGCUAAGGGGGCCUGGAAGUUUGGACUGGGCAGAGCCCAACACAGCGUGGCAAAGUGGCUGUGGCUAGACUGCCUCUCUGGAUUCCUCGUCACUCAGCAGGGCGUCUCUGAGAGAAAUGCC,0.12
15,UACGUAGGUGGUUUUCCCCUGAUAGUACUAAGGGGGCCUGGAAGUUUGAACUGGGCAGAGCUCAACACAGCGUGGCAAAGUGGCUGCGGCUAGACUGCCUCUCUGGAUUCCUCGUCACUCAGCAGGGCAUCUCUGAGAGAAAUGCC,0.09
16,UACGUAGGUGGAUUUCCCCUGAUAGUGCUAAGGGGGCCUGGAAGUUUGGACUGGGCAGUGCUCAACACAGCGUGGCAUAGUGGCUGUGGCUAGACUGCCUCUCUGGAUUCCUCGUCACUCAGCAGGGCAUCUCUGAGAGAAGUGCC,1.57
17,UACGUAGGUGGUUUUCCCCUGAUAGUGCUAAGGGGGCCAGGAAGUUUGGACUGGGCAGAGCUCAACACAGCGUGGCAAAGUGGCUGUGGCUAGUCUGCCUCUCUGGAUUCCCCGUCACUCAGCAGGGCAUCUCUGAGAGAAAUGCC,0.23
18,UACGUAGGUGGUCUUCCCCUGAUAGUGCUAAGAGGGCCUGGAAGUUUGGACUGGGCAGAGCUCAACACAGCGUGGCAAAGUGGCUGUGGCUAGACUGCCUCUCUGGAUUCCUCGUCACUCAGCGGGGCAUCUCUGAGAGAAAUGCC,0.61
19,UACGUAGGUGGUUUUCCCCUGAUAGUGCUAAGGGGGCCUGGAAGUUUGGACUGGGCAGAGCUCAACACAGCGUGGCAAAGUGGCUGUGGCUAGACUGCCUCUCUGGAUUCCUCGUCGCUCAGCAGGGCAUCUUUGAGAGAGAUGCC,0.42
20,UACGUAGGUGGUUUUCCCCUGAUAGAGCUAGGGGGGCCUGGAGGUUUGGACUGGGCAGAGCUCAACACAGCGUGGCAAAGUGGCUGUGGCUAGACUGCCUCUCUGGAUUCCUCGUCACUCAGCAGGGCAUCUCUGAGAGAAAUGCC,0.67

row,Variant,self-cleavage
1,UACGUAGGUGGUUUUCCCCAGAUAGUGCUAAGGGGGCCUGGAAGUUUGGACUGGGCAGAGCUCAACACAGCGUGGCAAAGUGGCUGUGGCUAGACUGCCUCUCAGGAUUCCUCGUCACUCAGCAGGGCAUCACUGAGAGAAAUGCC,1.02
2,UACGUAGGUGGUCUUCCCCUGAUAGUGCUUAGGGGGCCUGGAAGUUUGGCCUGGGCAGAGCUCAACACAGCGUGGCAAAGUGGCUGUGGCUAGACUGCCUCUCUGGAUUCCUCGUCACUCAGCAGGGCAUCUCUGAGAGAAAUGCC,0.31
3,UACGUAGGUGGUCUUCCCCUGAUAGUGAUAGGGGGGCCGGGAAGUUUGGACUGGGCAGAGCUCAACACAGCGUGGCAAAGUGGCUGUGGCUAGACUGCCUCUCUGGAUUCCUCGUCACUCAGCAGGGCAUCUCUGAGAGAAAUGCC,1.07
4,UACGUAGGUGGUUUUCCCCCGAUAGUGCUAAGGGGGCCUGGAAGUUUGGACUGGGCAGAGCUCAACACAGCGUGGCAAAGUGGCUGUGGCUAGACUGCCUCUCUGGAUUCCUCGUCCCUCAGCAGGGCAUCUCUGAGAGAAACGCC,1.02
5,UACGUAGGUGGUUUUCCCCUGGUAGUGCUAAGGGGGCCUGGAAGUUUGGACUGGGCAGAGCUCAACACAGCGUGGCAAAGUGGCUGUGGCUAGGCUGCCUCUCUGGAUUCCUCGUCACUCAGCAGGGCUUCUCUGAGAGAAUUGCC,0.15
6,UACGUAGGUGGUUUUCCCCUGAUAGUGCUAAGGGGGCCUGGAAGUUUGGACUGGGCAGAGCUCAACACAGCGUGGCAAGGUGGCUGUGGCUAGACUGCCUCUCUGGGUUCCUCGUCACUCAGCAGGGCAUCUCUGAGAGAAGUGCC,1.07
7,UACGUAGGUGGUUUUCCCCUGAUAGUGCUAAGGGGGCCUGGAAGUUUGGACUGGGCAGAGCUCAACACAGCGUGGCAGAGUGGCUGUGGCUAGACUGCCUCUCUGGAUUCCUCGUCACUCAGCAGGGCAUCCCUGAGAGAGAUGCC,2.01
8,UACGUAGGUGGUCUUCCCCUGAUAGUGCUAAGGGGGCCUGGAAGUUUGGACUGGGCGGAGCUCAACACAGCGUAGCAAAGUGGCUGUGGCUAGACUGCCUCUCUGGAUUCCUCGUCACUCAGCAGGGCAUCUCUGAGAGAAAUGCC,0.08
9,UACGUAGGCGGUUUUCCCUUGAUAGUGCUAAGGGGGCCCGGAAGUUUGGACUGGGCAGACCUCAAAACAGCGUGGCAAAGUGGCUGUGGCUAGACUGCCUCUCUGGAUUCCUCGUCACUCAGCAGGGCAUCUCUGAGAGAAAUGCC,0.23
10,UACGUAGGUGGUUUUCCCCCGAUAGAGCUAAGGGGGCCUGGAAGUUUGGACUGGGCAGAGCUCAACACAGCGUGGCAAAGUGGCUGUGGCUAGACUGCCUCUCUGGAUACCUCGUCACUCAGCAGGGCAUCUCUGAGAGAAAUGCC,0.55
11,UACGUAGGUGGUUUUCCCCUGAUAGUGCUAAGGGGGCCUGGAAGUUUGAACUGGGCAGAGCUCAACACAGCGUGGCAAAGUGGCUGUGGCUAGACUGCCUCUCUGGAUUCCUCGUCACUCAGCAGGGCACCUCUGAGAGAGAUGCC,0.69
12,UACGUAGGUGGUUUUCCCCAGAUAGUGCUAAGGGGGCCUGGAAGUAUGGACUGGGCAGAGCUCAACACAGCGUGGCAAAGUGGCUGUGGCUAGACUGCCUCUCUGGAUUCCUCGUCACCCAGCAGGGCAUCUCUGAGAGAAAAGCC,1.01
13,UACGUAGGUGGCUUUCCCCUGAUAGUGCUAAGGGGGCCUGGAAGUUUGGACUGGGCAGAGCUCAACACAGCGUGGCAAAGUGGCUGAGGCUAGACUGCCUCUCUGGAUUCCUCGUCACCCUGCAGGGCAUCUCUGAGAGAAAUGCC,0.2
14,UACGUAGGUGGUUCUCCCCUGAUAGUGCUAAGGGGGCCUGGAAGUUUGGGCAGGGCAGAGCUCAACACAGCGUGGCAAAGUGGCUGUGGCUAGACUGCCUCUCUGGAUUCCUCGUCACUCAGCAGGGCAUCUCUGAGAGAAAUGCC,0.98
15,UACGUAGGUGGUUUUCCCCCGAUAGUGCUAAGGGGGCCUGGAAGUUUGGACUGGGCAGAGCUCAACACAGCGAGGCAAAGUGGCUGUGGCUGGACUGCCUCUCUGGAUUCCUCGUCACUCAGCAGGGCAUCUCUGAGGGAAAUGCC,0.29
16,UACGUAGGUGGGUCUCCCCUGAUAGUGCUAAGGGGGCCUGGAAGUUUGGACUGGGCAGAGCUCAACACAGCGUGGCAAAGUGGCUGUGGCUAGACUGCCUCUCUGGAUUCCUCGUCACCCAGCAGGGCAUCUCUGAGAGAAAUGCC,1.31
17,UACGUAAGUGGUUUUCCCCUGAUAGUGCUAAGGGGGCCUGGAAGUUUGGACUGGGCAGAGCUCAACACAGCGUGGCAAAGUGGCUGCGGCUAGACUGCCUCUCCGGAUUCCUCGUCACUCAGCAGGGCAUCUCUGAGAGAGAUGCC,0.29
18,UACGUAGGUGGUUUUCCUCUGAUGGUGAUAAGGGGGCCAGGAAGUUUGGACUGGGCGGAGCUCAACACAGCGUGGCAAAGUGGCUGUGGCUAGACUGCCCCUCUGGAUUCCUCGUCACUCAGCAGGGCAUCUCUGAGAGAAAUGCC,0.29
19,UACGUAGGUGGUUUUCCCCUGAUAGUGCUAAGGGGGCCUGGAAGUUUGAACUGGGCGGAGCUCAACACAGCGUGGCAAAGUGGCUGUGGCUAGACUGCCUCUCUGGAUUCCUCGUCACUCAGCAGGGCGUCUCUGAGAGAAAUGCC,0.38
